According to PubChem BioAssay AID1508624 (National Center for Advancing Translational Sciences (NCATS), 2021):
Hit rate of the full screen: of about 48,000 compounds, about 120 (0.25%) were called active. About 4% were inconclusive and are not listed. Calls come from the whole dose curve; as a rule, active = well fitted activation curve with a large enough effect; inconclusive = small, poorly fitted or top-dose-only effect, or another doubt; inactive = no such curve, though single readings can be large or run the other way. This is one part of the list.

Assay: Primary qHTS for Identification of Small Molecule Activators of Huntingtin-Antisense Promoter Activity; note: nearly all actives have a fitted effect of over 55% in size
Settings: HEK293 HTT-AS promoter firefly luciferase reporter, 24 h; series mostly up to 57.5 µM; activity change, positive = activation: at the top concentration
Outline: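 HEK293 cells carrying firefly luciferase reporters were seeded at 2,500 per well in Opti-MEM and cultured for 24 h. They were then treated with compounds at up to 57.5 uM final for 24 h at 37 degrees C before Dual-Glo luminescence readout.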

Activity change, positive = activation, inactive:
COc1ccc(S(=O)(=O)NCC(c2ccco2)N2CCN(c3ccccc3F)CC2)cc1OC (stereo not given) -24.2%
CC(C)c1nc2ccc(C(=O)NCc3ccc(F)cc3)cc2o1 4.37%
COc1cc(C(=S)N2CCOCC2)cc(OC)c1OC -5.22%
O=C(Cn1c(=O)n(Cc2ccc(C(=O)NCc3ccccc3Cl)cc2)c(=O)c2ccccc21)Nc1ccc(F)c(Cl)c1 -21.2%
O=C(Cn1c(-c2cccs2)cc2ccccc21)NCc1ccccc1Br -38.3%
COc1ccc(N2CC(NC(=O)COc3ccc4ccccc4c3)CC2=O)cc1 (stereo not given) -22%
CN(C)S(=O)(=O)c1ccc2c(c1)N(CC(=O)N1CCN(c3ccccc3F)CC1)CCS2 -18.8%
CCc1cccc(C)c1NC(=O)CN1C(=O)C2(SCC(=O)N2c2cc(C)cc(C)c2)c2ccccc21 (stereo not given) -22.5%
COc1cccc(C(=O)Nc2ccccc2-c2nc3ccccc3s2)c1 13.5%
Cc1cccc(CNC(=O)CN2C(=O)CCCc3ccccc32)c1 -2.25%
Cc1ccc(-c2nc(CS(=O)(=O)CC(=O)NCc3ccccc3Cl)c(C)o2)cc1 -10.2%
CC(C)Cc1ccc(CC(=O)O)cc1 -6.75%
Cc1oc(-c2cccc(Cl)c2)nc1CN1CCCC(C(=O)NCc2ccc(Cl)cc2)C1 (stereo not given) -22.3%
O=S(=O)(c1ccc2[nH]c3c(c2c1)CCCCC3)N1CCN(c2cccc(Cl)c2)CC1 9.73% [at 11.5 µM, percent change from vehicle, -100% = no light]
Cc1ccccc1CNC(=O)c1sc2ncnc(N(C)C3CCCCC3)c2c1C -23.6%
NC(N)=NCCC[C@H](N)C(=O)O -6.75% [at 6 µM, percent change from vehicle, -100% = no light]
CC1=C(C(=O)Nc2cccc(C(F)(F)F)c2)C2(CCCCC2)OC1=O -29.5%
COc1cc(OC)cc(C(=O)Nc2cccc(-c3cn4cccnc4n3)c2)c1 1.63%
Cc1cccc(NC(=O)c2sc(-n3nc(C)c(CCC(C)C)c3C)nc2C)c1C -2.56%
Cc1ccc(CNC(=O)CCCCn2c(=O)c3ccccc3n(Cc3ccc(C)cc3)c2=O)cc1 -12%
CCOC(=O)c1c(S(=O)(=O)N2CCC(C(=O)NCc3ccccc3OC)CC2)c(C)n(C)c1C 20.5%
Cc1cc(C)cc(OCC(=O)N(Cc2ccc(Cl)cc2)CC2CCCO2)c1 (stereo not given) -23.7%
CCCCSCCCNC(=O)c1cn(C)c2ccc(S(=O)(=O)N3CCCC3)cc2c1=O -15.2%
COc1ccc(-c2nc3ccc(C)cn3c2Nc2ccc3c(c2)OCO3)cc1 6.09%
Cc1ccc(-n2nc(C(=O)Nc3ccc(C)c(F)c3)c(=O)n(C)c2=O)cc1 -5.19%
O=C(NC1CCCC1)c1ccc2c(=O)n(Cc3ccccc3)c(SCc3ccccc3)nc2c1 -6.39%
CC(C=CC1=C(C)CCCC1(C)C)=CC=CC(C)=CC(=O)Nc1ccc(O)cc1 -44.9% [at 116 µM, percent change from vehicle, -100% = no light]
Cc1ccc(Nc2nc(Nc3ccc(C)c(C)c3)nc(N3CCOCC3)n2)cc1C -30.8%
COc1ccc(N2CCN(CCCNC(=O)c3cc(Nc4ccccc4OC)nc4ccccc34)CC2)cc1 -39.4%
Cc1ccc(-n2nnnc2CNC(=O)c2ccccc2)cc1C -4.55%
COc1cc(C(=O)N2CCN(c3ccc(Nc4ccccc4)nn3)CC2)cc(OC)c1OC 10.2%
CC1CCCCN1S(=O)(=O)c1cc2c3c(c1)CC(=O)N3CCC2 (stereo not given) 3.21%
COc1ccc(NC(=O)Nc2c[nH]c(=O)[nH]c2=O)c(OC)c1 -3.62%
CCc1ccc(NC(=O)C2=CC(c3ccc4c(c3)OCO4)=NS(=O)(=O)N2C)cc1 -19.9%
Cc1cccc(-n2c(C)nc3cc(C(=O)NC4CCCCCC4)ccc32)c1 0.83%
COc1ccccc1CNC(=O)CSc1ncc2c(n1)-c1cc(Cl)ccc1N(Cc1ccccc1)S2(=O)=O -6.93%
Cc1c(C(=O)N(Cc2ccc(Cl)cc2)CC2CCCO2)oc2ccc(F)cc12 (stereo not given) -18.7%
CCOc1ccc(-c2nc(SCC(=O)NCCCOC)c(-c3ccccc3)[nH]2)cc1 26.7%
CCn1c(CN2CCOCC2)nc2cc(NC(=O)c3ccc([N+](=O)[O-])cc3)ccc21 -39.3%
COc1ccccc1Oc1c(NS(=O)(=O)c2ccc(C(C)(C)C)cc2)nc(-c2ncccn2)nc1OCCO -19.4%
CSc1ccc(CC2C(=O)Nc3ccccc32)cc1 (stereo not given) -9.61%
O=C(Cc1ccccc1F)N1CCC(c2nc3c(nnn3Cc3ccc(F)cc3)c(=O)[nH]2)CC1 -27.2%
O=C(CS(=O)(=O)c1cccc2nsnc12)Nc1cc(F)ccc1F -7.03%
CCOC(=O)C1CCN(c2c(C(=O)c3ccc(C)cc3)cnc3ccc(F)cc23)CC1 -7.87%
O=c1c2cc3c(nc2ncn1Cc1ccc(Cl)cc1)CCCC3 0.73%
COc1ccc(NC(=O)CN2C(=O)c3ccccc3Sc3ccc(C(=O)N4CCOCC4)cc32)c(OC)c1 -19%
COc1cc(C(=O)OCc2cc(=O)n3nc(C(C)C)sc3n2)cc(OC)c1OC -5.39%
COc1cc(NC(=O)c2cccc(F)c2)ccc1NC(=O)c1cc2ccccc2o1 -10.6%
CCOc1ccccc1NC(=O)CN1CCCN(Cc2cccc(Cl)c2)S1(=O)=O -28.4%
O=C(Nc1ccc(Oc2ccnc3[nH]ccc23)c(F)c1)c1cccn(-c2ccc(F)cc2)c1=O 9.25%
Cc1nc2ncnn2c(C)c1CCC(=O)N1CCN(c2cccc(Cl)c2)CC1 -10.6%
CCOC(=O)c1cccc(NS(=O)(=O)c2cc3[nH]c(=O)c(=O)[nH]c3cc2C)c1 0.323%
CC1CCC2(CC1)N=C(c1ccccc1)C(=O)N2CC(=O)Nc1ccc(F)c(Cl)c1 (stereo not given) -54.2%
CCc1ccc(NC(=O)c2nnn(Cc3cccc(C(F)(F)F)c3)c2N)cc1 6.64%
COc1cccc(CNC(=O)COCc2cc(-c3ccc4c(c3)OCO4)on2)c1 -9.57%
Cc1cc(C)cc(-n2ccnc2SCC(=O)Nc2ccc3c(c2)OCO3)c1 -37.9%
Cn1cc(-c2cc3n(n2)CCC(=O)N3CCCC(=O)Nc2ccc(F)cc2F)c2ccccc21 -18.7%
CC(=O)N(Cc1cccnc1)c1nc2c(C)cccc2s1 -8.69%
COc1ccc(S(=O)(=O)NCc2ccc3c(c2)CCN3C(=O)c2ccc(C)cc2)cc1Cl -47%
CCOC(=O)C1CCN(C(=O)Cn2nc(C)n3c(cc4cc(C)ccc43)c2=O)CC1 -13.6%
